According to the supplement of paper PMC9446081:
About 220 (0.56%) of roughly 39,000 compounds showed activity. The list shows a part of the results.

system: Escherichia coli K-12 BW25113; test: relative growth (OD600 normalised to plate interquartile mean) (fraction); higher = less growth inhibition, active = 0.2 or less; details: 50 µM; LB; incubation time: overnight (16-24 h)
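Also: static incubation at 37 °C against the wild-type strain, values averaged over two biological replicates.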

Compound	relative growth
COC(=O)C[C@@H]1CC[C@@H]2[C@H](COC[C@@H](O)CN2S(=O)(=O)c2ccc(F)cc2)O1	inactive: 0.96
O=C(NCC(F)(F)F)c1cc2c(c(-c3cccc(-c4ccccc4F)c3)n1)[C@@H](CCO)N(C(=O)CC1CC1)C2	inactive: 1.09
O=C(C[C@H]1C[C@@H]2c3cc(NS(=O)(=O)c4ccc(F)cc4)ccc3O[C@@H]2[C@@H](CO)O1)NCc1cccc(F)c1	inactive: 1
Cc1ccc(S(=O)(=O)Nc2ccc3c(c2)C(=O)N([C@@H](C)CO)C[C@@H](C)[C@@H](CN(C)C(=O)Nc2ccc4c(c2)OCO4)OCCCC[C@H](C)O3)cc1	inactive: 1
C[C@@H]1[C@H]2[C@H](O[C@@H]3O[C@H](CO)[C@@H](O)[C@H](O)[C@H]3O)OC=C(C(=O)O)[C@H]2C[C@@H]1OC(=O)/C=C/c1ccc(O)cc1	inactive: 0.966
C[C@@H]1CN([C@@H](C)CO)C(=O)c2cccc(NS(=O)(=O)c3ccc(Cl)cc3)c2O[C@@H]1CN(C)C(=O)Nc1ccc(C(F)(F)F)cc1	inactive: 1.05
C[C@H]1CN([C@@H](C)CO)C(=O)c2cc(NC(=O)Nc3ccc(C(F)(F)F)cc3)ccc2O[C@@H]1CN(C)Cc1ccc(-c2ccccc2)cc1	inactive: 1.03
Cc1ccc(S(=O)(=O)N(C)C[C@H]2OCCCC[C@H](C)Oc3ccc(NS(=O)(=O)c4ccc(F)cc4)cc3C(=O)N([C@H](C)CO)C[C@H]2C)cc1	inactive: 1.04
CN1CCN(C(=O)C[C@H]2CC[C@H]3[C@H](COc4ccc(NC(=O)c5ccc(F)c(F)c5)cc4C(=O)N3C)O2)CC1	inactive: 1.01
C[C@H](CO)N1C[C@H](C)[C@H](CN(C)Cc2ccccc2)Oc2ncc(-c3cccc(C(F)(F)F)c3)cc2C1=O	inactive: 0.969
C[C@@H]1CCCCO[C@@H](CN(C)S(=O)(=O)c2ccc(Cl)cc2)[C@H](C)CN([C@H](C)CO)C(=O)c2cc(NC(=O)Nc3ccc4c(c3)OCO4)ccc2O1	inactive: 1.01
CN(C)C1C(O)=C(C(N)=O)C(=O)C2(O)C(O)=C3C(=O)c4c(O)ccc(Cl)c4C(O)C3CC12.Cl (stereo unspecified)	active: 0.0565
C[C@@H]1CCCCO[C@@H](CN(C)Cc2ccc(C(F)(F)F)cc2)[C@@H](C)CN([C@@H](C)CO)C(=O)c2cc(NC(=O)Nc3cccc4ccccc34)ccc2O1	inactive: 0.99
C=CCOC(=O)[C@@H]1[C@H]2C(=O)O[C@H](c3ccccc3)[C@H](c3ccccc3)N2[C@H](c2ccc(OCCOC(=O)[C@@H]3C[C@@H]4C(=O)N5CCC[C@H]5C(=O)N4[C@@H]3c3cccc(OCCO)c3)cc2)[C@@]12C(=O)Nc1ccc(I)cc12	inactive: 1.05
O=c1cn[nH]c(NC2CCCC2)n1	inactive: 0.944
Cc1noc(C)c1NC(=O)Nc1cccc2c1O[C@@H](CN(C)Cc1ccc(C(F)(F)F)cc1)[C@H](C)CN([C@@H](C)CO)C2=O	inactive: 0.965
N=C(N)Nc1nc2ccccc2[nH]1	inactive: 1.06
COCC#Cc1ccc([C@@H]2[C@@H](CO)N3C(=O)CN(C(=O)c4cccnc4)C[C@@H]23)cc1	inactive: 0.991

Compound	relative growth
C[C@H]1CN([C@@H](C)CO)C(=O)c2cccc(NC(=O)C3CCOCC3)c2O[C@@H]1CN(C)C(=O)Nc1ccccc1	inactive: 1.03
C[C@@H]1CN([C@H](C)CO)C(=O)c2c(c3ccccc3n2C)-c2ccccc2CO[C@H]1CN(C)C(=O)Nc1ccc(-c2ccccc2)cc1	inactive: 1.03
C[C@H]1CN([C@@H](C)CO)C(=O)c2cc(NC(=O)Nc3cccc4ccccc34)ccc2O[C@@H]1CN(C)Cc1ccncc1	inactive: 0.996
CC(C)NC(=O)NCC[C@H]1CC[C@@H](NC(=O)CN(C)C)[C@@H](CO)O1	inactive: 1
C[C@@H]1CN([C@@H](C)CO)C(=O)c2cc(NC(=O)c3ccncc3)ccc2O[C@H]1CN(C)Cc1ccncc1	inactive: 0.991
COc1ccc(OC)c([C@H]2C(C(=O)c3c(C)nc4c(C)cccn34)=C(O)C(=O)N2CCN2CCOCC2)c1	inactive: 0.996
CCCC#Cc1cnc2c(c1)C(=O)N([C@@H](C)CO)C[C@@H](C)[C@@H](CN(C)S(=O)(=O)c1cccc(OC)c1)O2	inactive: 1
COc1cc2c(cc1OC)CN(C(=O)[C@@H]1[C@H]3C(=O)O[C@H](c4ccccc4)[C@H](c4ccccc4)N3[C@H](c3ccc(OCCO)cc3)[C@@]13C(=O)Nc1ccc(C#CC4(O)CCCCCC4)cc13)CC2	inactive: 1.09
CCO[C@@H]1OC(C(=O)N2CCOCC2)=C[C@H](c2coc3ccccc3c2=O)[C@H]1CCCOC(=O)NCCCCCC(=O)NO	inactive: 0.992
COc1ccc(S(=O)(=O)N(C)C[C@H]2Oc3cc(C#CC4CCCC4)ccc3S(=O)(=O)N([C@@H](C)CO)C[C@H]2C)cc1	inactive: 1.04
C[C@@H]1CN([C@H](C)CO)C(=O)c2cc(NC(=O)Nc3ccc(C(F)(F)F)cc3)ccc2O[C@@H](C)CCCCO[C@@H]1CN(C)C(=O)Nc1cccc2ccccc12	inactive: 1.05
COc1cc(/C=C/C(=O)CC2=N/C(=N/Cc3ccc4c(c3)OCO4)S[C@H](c3ccc(O)c(OC)c3)C2)ccc1O	inactive: 1.02
C=CCSCC1Nc2cc(Cl)c(S(N)(=O)=O)cc2S(=O)(=O)N1 (stereo unspecified)	inactive: 1.08
O=C(C[C@@H]1CC[C@@H]2[C@H](COC[C@H](O)CN2S(=O)(=O)c2ccccc2)O1)N1CCOCC1	inactive: 0.989
CCCN1C[C@H](C)[C@H](OC)CN(C)C(=O)c2ccc(NS(=O)(=O)c3cn(C)cn3)cc2OC[C@@H]1C	inactive: 1
C[C@@H]1CCCCO[C@H](CN(C)Cc2ccccc2)[C@H](C)CN([C@H](C)CO)C(=O)c2cc(NC(=O)NC3CCCCC3)ccc2O1	inactive: 0.988
C(=N\c1nnc2nc[nH]n12)/c1ccco1	inactive: 0.991
C[C@H](CO)N1C[C@H](C)[C@@H](CN(C)S(=O)(=O)c2ccc(F)cc2)OCCCC[C@H](C)Oc2ccc(NC(=O)NC3CCCCC3)cc2C1=O	inactive: 1.01
